Reference: US11365205B2 (Aurigene Discovery Technologies Limited, priority 2018, dated 2022)

Molecular target: PRMT5/MEP50 Complex (Homo sapiens (Human), UniProt O14744)
Assay: PRMT5 inhibition based on TR-FRET assay
Format: biochemical
Conditions: 32 nM PRMT5:MEP50, 50 nM Histone-H4 peptide, 1 μM SAM
Description: PRMT5 Inhibition Based on TR-FRET Assay:
Protein arginine methyltransferase 5 (PRMT5) is a type II arginine methyltransferase that catalyze mono- and symmetric demethylation on arginine residues of histone or non-histone proteins in presence of S-adenosylmethionine (AdoMet or SAM) a cofactor responsible for donating the methyl group. PRMT5 is reported to be overexpressed in several human cancers. To identify compounds that inhibit the PRMT5 and decrease its activity, a TR-FRET based assay has been established. Time-resolved fluorescence resonance energy transfer (TR-FRET) HTS assays are homogeneous proximity assays where the interaction of two dye-labeled binding partners is detected by the energy transfer between a donor and an acceptor dye and the subsequent light emission by the acceptor dye. PRMT5 catalyzes Histone H4 peptide which is biotin tagged to the Lysine amino acid at carboxyl end, in presence of S-adenosyl-1-methionine (SAM) to methylate the peptide. The antibody specific to mono methylated H4 peptide (H4R3) with Ig conjugate binds to the methylated peptide, indirectly binding to the Europium lanthanide. […]
The compound dilutions were prepared as 7.5% DMSO stock solutions in assay buffer. […] The plates were then read on Victor-3 with Excitation at 340 nm and Emissions collected at 615 and 665 nm in TR-FRET protocol. […]

UniProt O14744, sequence (O14744 whole entry): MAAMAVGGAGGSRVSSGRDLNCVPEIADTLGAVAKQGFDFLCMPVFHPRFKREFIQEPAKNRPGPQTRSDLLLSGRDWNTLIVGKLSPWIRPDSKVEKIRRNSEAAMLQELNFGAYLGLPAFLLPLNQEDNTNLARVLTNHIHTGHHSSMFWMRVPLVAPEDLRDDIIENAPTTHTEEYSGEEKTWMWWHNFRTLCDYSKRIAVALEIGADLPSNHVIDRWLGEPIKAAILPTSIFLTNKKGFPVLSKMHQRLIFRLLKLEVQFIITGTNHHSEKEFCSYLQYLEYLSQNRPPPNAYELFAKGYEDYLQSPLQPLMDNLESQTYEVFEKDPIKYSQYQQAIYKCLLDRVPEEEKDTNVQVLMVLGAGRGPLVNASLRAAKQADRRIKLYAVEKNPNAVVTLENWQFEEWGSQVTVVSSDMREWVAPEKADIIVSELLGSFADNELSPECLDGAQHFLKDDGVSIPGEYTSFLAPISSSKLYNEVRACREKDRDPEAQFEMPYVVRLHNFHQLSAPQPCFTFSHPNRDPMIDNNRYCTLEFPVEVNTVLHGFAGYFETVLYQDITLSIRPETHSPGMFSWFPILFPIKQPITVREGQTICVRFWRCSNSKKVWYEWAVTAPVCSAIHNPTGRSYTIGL
UniProt O14744, sequence (Q9BQA1 whole entry partner): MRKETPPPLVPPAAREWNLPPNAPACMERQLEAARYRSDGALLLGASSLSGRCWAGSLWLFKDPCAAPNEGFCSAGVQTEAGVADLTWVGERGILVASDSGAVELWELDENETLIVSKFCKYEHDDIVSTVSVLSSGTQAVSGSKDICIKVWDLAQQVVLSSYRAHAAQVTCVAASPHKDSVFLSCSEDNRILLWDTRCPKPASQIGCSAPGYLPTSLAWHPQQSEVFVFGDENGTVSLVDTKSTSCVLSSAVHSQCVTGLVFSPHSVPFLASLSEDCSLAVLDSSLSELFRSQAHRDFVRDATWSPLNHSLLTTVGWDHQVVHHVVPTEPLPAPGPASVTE

IC50 [nM]	Structure (SMILES)
430	Cn1cnc2ccc(CN3CCN(CC(O)CN4CCc5ccccc5C4)C3=O)cc21 (centres unmarked) [Example 1, 1-(3-(3,4-Dihydroisoquinolin-2(1H)-yl)-2-hydroxypropyl)-3-((1-methyl-1H-benzo[d]imidazol-6-yl)methyl)imidazolidin-2-one]
610	Cc1ccc(CN2CC(c3ccccc3)N(CC(O)CN3CCc4ccccc4C3)C2=O)cc1 (centres unmarked) [Example 81, 3-(3-(3,4-dihydroisoquinolin-2(1H)-yl)-2-hydroxypropyl)-1-(4-methylbenzyl)-4-phenylimidazolidin-2-one]
